# PubChem BioAssay AID504845 (National Center for Advancing Translational Sciences (NCATS), 2011)
# Out of some 390,000 compounds screened, about 150 (0.038%) were called active. Inconclusive results, whose numbers are uncertain, are shown with a selection of clear calls. The call rests on the fitted dose curve; in most records, active means well fitted inhibition curve with a large enough effect; inconclusive means small, poorly fitted or top-dose-only effect; inactive means no such curve, though single readings can be large or run the other way. Where the call is inconclusive, the potency comes from a doubtful curve fit.
# Target: Regulator of G-protein signaling 4 (Homo sapiens) (UniProt P49798)
# UniProt P49798, sequence (P49798 whole entry, looked up): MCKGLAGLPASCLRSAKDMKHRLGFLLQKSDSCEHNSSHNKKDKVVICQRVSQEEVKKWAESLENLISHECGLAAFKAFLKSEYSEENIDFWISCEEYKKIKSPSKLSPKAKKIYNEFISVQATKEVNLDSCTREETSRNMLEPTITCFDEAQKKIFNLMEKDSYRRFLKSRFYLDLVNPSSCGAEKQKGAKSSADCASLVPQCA
# Assay: Inhibitors of Regulator of G Protein Signaling (RGS) 4: qHTS; further: nearly all actives have a fitted effect of over 75% in size
# Settings: Transcreener GDP fluorescence polarization, RGS4-accelerated GTP hydrolysis; series mostly up to 114 µM
# Procedure, shortened: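 MLSMR compounds (23 nl, pin-transferred) preincubated 10 min at room temperature with a 500nM (2x) first reagent, then RGS4 at 900nM (2x) plus Transcreener GDP mix added; fluorescence polarization (620/688 nm) read before and after 90 min at 30 °C.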
# Potency means the concentration at half of the fitted maximal effect; tags describe the fitted curve by direction and shape.
row,Compound,Potency
1,CCOC(=O)C(O)(c1cn(C)c2ccccc12)C(F)(F)F (stereo unspecified),"inconclusive: 56.2 µM [inhibitor, partial curve, poor fit]"
2,CCCCC/C=C\C/C=C\C/C=C\C=C\[C@H](CCCC(=O)O)OO,"inconclusive: 8.44 µM [inhibitor, partial curve, poor fit]"
3,CCOP(=O)(CCP(=O)(OCC)OCC)OCC.C[CH2][Sn]([Cl])([Cl])[CH2]C,"inconclusive: 31.6 µM [inhibitor, full curve, poor fit]"
4,CN1C(=O)C(C2c3ccccc3C(=O)N2Cc2ccccc2)C(=O)N(C)C1=O (stereo unspecified),inactive
5,Cc1cc(C=C2C(=O)NC(=S)NC2=O)c(C)n1C1CCCC1,"inconclusive: 79.4 µM [inhibitor, partial curve, poor fit]"
6,Cn1cccc1/C=C1\C(=O)NC(=O)N(Cc2ccco2)C1=O,"inconclusive: 39.8 µM [inhibitor, partial curve, poor fit]"
7,COc1ccc(-n2c(/C=C/c3ccc(O)cc3)nc3ccccc3c2=O)cc1,inactive
8,CSc1ncc(/C=C2/C(=O)NC(=O)N(C)C2=O)cn1,"inconclusive: 31.6 µM [inhibitor, full curve, poor fit]"
9,CCOc1cc(/C=C2\C(=O)NC(=O)N(CCc3ccc(F)cc3)C2=O)ccc1O,"inconclusive: 79.4 µM [inhibitor, partial curve, poor fit]"
10,COc1cccc(-n2c(CN3CCN(C)CC3)nc3ccc([N+](=O)[O-])cc3c2=O)c1,"inconclusive: 79.4 µM [inhibitor, single point]"
11,NS(=O)(=O)c1ccc(CCNC(=O)c2ccc(Cl)c(S(=O)(=O)N3CCCCCC3)c2)cc1,"inconclusive: 89.1 µM [inhibitor, partial curve, poor fit]"
12,COc1cc([C@@H]2c3cc4c(cc3C[C@H]3COC(=O)[C@@H]32)OCO4)cc(OC)c1O,inactive
13,Cc1c(N=Cc2c(O)n(Cc3ccc(F)cc3)c(=O)[nH]c2=O)c(=O)n(-c2ccccc2)n1C,inactive
14,C=CC[C@@H](CC/C=C/C=C/CC/C=C\[C@@H]1CSC([C@@H]2C[C@@H]2C)=N1)OC,"inconclusive: 56.2 µM [inhibitor, partial curve, poor fit]"
15,O=C1CC(=O)N(c2ccccc2)C(=O)N1,"inconclusive: 70.8 µM [inhibitor, single point]"
16,CC(C)CN(CC(C)C)c1ccc(C=C2C(=O)NC(=S)NC2=O)cc1[N+](=O)[O-],"inconclusive: 31.6 µM [inhibitor, full curve, poor fit]"
